From ChEMBL document CHEMBL1201862, “PubChem BioAssay data set” (2004)
Several values for one entry are separate records, joined by “and”; a condition that tells them apart may be missing. Equal entries are not always repeated.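 Dose response: 5 concentrations. Exposure: 48 h. Format: 96-well plates. Endpoint: linear interpolation; highest concentration if not reached. Abbreviation: GI50, concentration required for 50% inhibition of growth.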 Activity calls are given as the source filed them. No stated cut-off is given here; in the data, active = GI50 up to about 1.1 µM and inactive = higher. Peptide text beside a SMILES is read from it.

Test system: NCI-H322M
Assay: NCI tumour cell line growth inhibition, 48 h

Q: How did the GI50 turn out when `OC1CCCN(C2(c3cccs3)CCCCC2)C1` (stereo unspecified) was run?
A: Its GI50 is inactive: > 100 µM.

Q: With `CCCCCCCCCCCCCCCCOP(=O)(O)OCC(NC(C)=O)C(=O)O` (stereo unspecified) as the compound, how does the GI50 read?
A: The GI50 was inactive: > 100 µM.

Q: `[N-]=[N+]=NI1OC(=O)c2ccccc21` was tested. Which GI50 did it give?
A: The GI50 was inactive: > 100 µM.

Q: With `CC#CC#C/C=C1\C=CC2(OC=CC2OC(C)=O)O1` (stereo unspecified) as the compound, how does the GI50 read?
A: The GI50 was inactive: > 100 µM and inactive: > 53.6 µM.

Q: `Cc1c2c(c(O)c3c(O)cccc13)C(=O)C1(O)C(=O)C(C(=O)NCNc3ccc(C(N)=O)cn3)=C(O)C(N(C)C)C1C2` (stereo unspecified) was tested. Which GI50 did it give?
A: Its GI50 is inactive: 7.74 µM.

Q: How did the GI50 turn out when `O=C(Nc1ccc(C(F)(F)F)cc1[N+](=O)[O-])C(=O)C(C(=O)c1ccc2ccccc2c1)C1OC(=O)c2ccccc21` (stereo unspecified) was run?
A: The GI50 was inactive: 3.94 µM.

Q: Which GI50 does the source give for `O=c1[nH]c2c(C(F)(F)F)c(Cl)c(-c3ccccc3)nc2o1` here?
A: The GI50 was inactive: 10.8 µM.

Q: For `NC(=O)c1nnsc1NC=O`, which GI50 is on record?
A: Its GI50 is inactive: > 100 µM.

Q: For `Cc1ccc(S(=O)(=O)C2c3nc4ccccc4cc3-c3nc4ccccc4nc32)cc1` (stereo unspecified), which GI50 is on record?
A: The GI50 was inactive: > 100 µM.

Q: Which GI50 does the source give for `Cc1ccc(S(=O)(=O)Nn2c(O)c(C#N)c(-c3ccc(N(C)C)cc3)c(C#N)c2=O)cc1` here?
A: Its GI50 is inactive: > 50 µM.

Q: `C=CCOC1(CC=C)C(=O)OC2C(O)COC21O` (stereo unspecified) was tested. Which GI50 did it give?
A: The GI50 was inactive: > 100 µM.

Q: With `CSc1nc(NC2OC(COC(C)=O)C(OC(C)=O)C(OC(C)=O)C2OC(C)=O)c(/N=C\C=N/c2c(NC3OC(COC(C)=O)C(OC(C)=O)C(OC(C)=O)C3OC(C)=O)nc(SC)n(C)c2=O)c(=O)n1C` (stereo unspecified) as the compound, how does the GI50 read?
A: The GI50 was inactive: > 100 µM.

Q: With `Nc1nc(SCc2ccccc2Cl)cc(C(=O)O)n1` as the compound, how does the GI50 read?
A: Its GI50 is inactive: 51.1 µM.

Q: With `CCOC(=O)COc1cccc2c1C(=O)CCO2` as the compound, how does the GI50 read?
A: The GI50 was inactive: > 100 µM.

Q: Which GI50 does the source give for `COC(=O)N/N=c1\cc(C(=O)Nc2ccc(C)c(C)c2)oc2cc(O)ccc12` here?
A: Its GI50 is inactive: > 100 µM.

Q: Which GI50 does the source give for `Cc1ccc2sc3ccc(N)cc3c(=O)c2c1` here?
A: The GI50 was inactive: 35.2 µM.

Q: With `COc1ccc(Nc2cnc3cc(N)ccc3n2)cc1OC` as the compound, how does the GI50 read?
A: The GI50 was inactive: 72.3 µM.

Q: `CC(C)Oc1cc2c(cc1O)CC[C@@H]1[C@@H]2CC[C@]2(C)[C@@H](O)CC[C@@H]12` was tested. Which GI50 did it give?
A: Its GI50 is inactive: 10.9 µM.

Q: With `COc1ccc2nc3n(c2c1)C(c1c(F)cccc1F)SC3` (stereo unspecified) as the compound, how does the GI50 read?
A: Its GI50 is inactive: 57.1 µM.

Q: For `COc1c(C)c(C/C=C(\C)CC/C=C(\C)CC/C=C(\C)CCC=C(C)C)c(OC)c(OC)c1OC`, which GI50 is on record?
A: Its GI50 is inactive: > 100 µM.

Q: With `OC(c1ccccc1)(c1ccccc1)c1cccnc1` as the compound, how does the GI50 read?
A: The GI50 was inactive: > 100 µM.

Q: `Cc1ccccc1NC(=O)O/N=C(\Cl)C(C)C` was tested. Which GI50 did it give?
A: The GI50 was inactive: 17.9 µM.

Q: For `N[C@H](C(=O)O)[C@H]1ON=C(Cl)[C@@H]1O`, which GI50 is on record?
A: Its GI50 is inactive: 8.65 µM.

Q: How did the GI50 turn out when `CC1OC(OCC2OC(Oc3ccc(C4CC(=O)c5c(O)cc(O)cc5O4)cc3O)C(O)C(O)C2O)C(O)C(O)C1O` (stereo unspecified) was run?
A: Its GI50 is inactive: > 100 µM.

Q: `Cc1cc(-c2cc(C)c(O)c(C(C)(C)C)c2)cc(C(C)(C)C)c1O` was tested. Which GI50 did it give?
A: Its GI50 is inactive: 13.5 µM and inactive: 15.4 µM.

Q: How did the GI50 turn out when `O=C(CC1=Nc2nnc(CCCCCCCc3nnc4n3C(=O)C(CC(=O)c3ccc5ccccc5c3)=N4)n2C1=O)c1ccc2ccccc2c1` was run?
A: Its GI50 is inactive: > 100 µM.

Q: `COc1ccc(C2C3CCCC(C3=O)C(c3ccc(OC)cc3)N2N=O)cc1` (stereo unspecified) was tested. Which GI50 did it give?
A: Its GI50 is inactive: 70.8 µM.

Q: For `c1ccc(C2(c3ccccc3)SSC3(S2)C2CC4CC(C2)CC3C4)cc1` (stereo unspecified), which GI50 is on record?
A: The GI50 was inactive: > 100 µM.

Q: How did the GI50 turn out when `C/C(=N/NC(=S)Nc1ccc([N+](=O)[O-])cc1)c1cccc(/C(C)=N\NC(=S)Nc2ccc([N+](=O)[O-])cc2)n1` was run?
A: Its GI50 is active: 0.351 µM.

Q: With `CCOc1ccc(NCC2CC/C(=C\C=C\c3ccccc3)C2=O)cc1` (stereo unspecified) as the compound, how does the GI50 read?
A: The GI50 was inactive: 57.1 µM.

Q: Which GI50 does the source give for `CCN(CC)Cc1cc(Nc2c3ccccc3nc3c4ccccc4n(C)c23)ccc1O` here?
A: Its GI50 is inactive: 11.4 µM.

Q: For `Nc1ccc2c(c1)N(C(=O)c1cc3cc(NC(=O)c4cc5ccccc5o4)ccc3[nH]1)CC2CCl` (stereo unspecified), which GI50 is on record?
A: Its GI50 is active: 0.134 µM.

Q: For `CC1=C2C(O)C(C(C)C(=O)N(C)C)CCC2(C)C=CC1=O` (stereo unspecified), which GI50 is on record?
A: The GI50 was inactive: > 100 µM.

Q: Which GI50 does the source give for `Cc1ccc(S(=O)(=O)C2=C(C(C)C)N=NC2(C)C)cc1` here?
A: The GI50 was inactive: > 100 µM.

Q: `O=C(O)CS(=O)(=O)C(c1ccccc1)c1ccccc1` was tested. Which GI50 did it give?
A: The GI50 was inactive: > 100 µM.

Q: How did the GI50 turn out when `CCN(CC)C(=S)N/N=C(\C)c1cccc(C)n1` was run?
A: Its GI50 is active: < 0.0391 µM.

Q: Which GI50 does the source give for `CC(=O)N1CCOC12N=NC(C)(C)O2` (stereo unspecified) here?
A: Its GI50 is inactive: > 100 µM.

Q: For `CC(SCc1ccccc1)C(=O)O` (stereo unspecified), which GI50 is on record?
A: Its GI50 is inactive: > 100 µM.

Q: `O=[N+]([O-])c1cccc(/C=N\NS(=O)(=O)c2ccc(Cl)cc2)c1O` was tested. Which GI50 did it give?
A: Its GI50 is inactive: > 100 µM.

Q: How did the GI50 turn out when `CC(=O)NC(CS)C(=O)NC(CO)C(=O)NC(CO)C(=O)NC(Cc1c[nH]c2ccccc12)C(=O)N1CCCC1C(=O)NC(CO)C(=O)NC(Cc1c[nH]c2ccccc12)C(=O)NC(Cc1c[nH]cn1)C(=O)NC(CO)C(=O)NC(Cc1c[nH]c2ccccc12)C(=O)NCC(=O)NCC(=O)NC(CC(=O)O)C(=O)NC(CCC(N)=O)C(=O)NC(CCCCN)C(=O)NC(Cc1ccccc1)C(=O)NC(CCCNC(=N)N)C(=O)NC(CCCCN)C(N)=O` (stereo unspecified) (Ac-CSSWPSWHSWGGDQKFRK-NH2; configuration not given here) was run?
A: The GI50 was inactive: > 25 µM.

Q: Which GI50 does the source give for `CC(=O)N(CCc1ccccc1)C(C)(C#N)c1ccccc1` (stereo unspecified) here?
A: The GI50 was inactive: > 100 µM.
